Sequences and labels used below:
B1: CPEB3 Ribozyme (parent)
chain: UAACAGGGGGCCACAGCAGAAGCGUUCACGUCGCAGCCCCUGUCAGAUUCUGGUGAAUCUGCGAAUUCUGCUGUAUAUCUC

We go through 34 variants from the RNAGym collection of RNA variant scans (doi:10.1093/nar/gkz1192).

Read counts are not given, so values of variants with three or more changes are uncertain.

The data set covers variants of B1. The experiment in a line: self-cleavage, relative activity (ratio to wild type); higher = more cleavage; in vitro, sequencing. The method in brief: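 Barcoded CPEB3 ribozyme mutants, produced by rounds of error-prone PCR, self-cleaved while being transcribed with T7 RNA polymerase for 5 hours at 37°C and during a subsequent 15 min DNase I step before EDTA was added. Sequencing of template-switched cDNA on Illumina gave cleaved and total reads, and DNA sequencing assigned barcodes to variants. Each variant's relative activity is its cleaved/total read fraction divided by the unmutated ribozyme's fraction, averaged across three batches. A variant needed a minimum of 5 reads.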
For UAACAGGGGGCCACAGCAGAGGCGUUCACGUCGGAGCCCCUGACAGAUUCUGGUGAACCUGCGAAUUUUGCUGUAUAUCUC [A21G C34G U43A U58C C68U], the self-cleavage came to 0.08.

Regarding UAACAGGGGGCCACAGCAGAGGCGUUGACGUCGCAGCCCCUGUCAGAUUCUGGUGAAUCAGCGGAUUCUGCUGUAUAUCUC [A21G C27G U60A A64G], the self-cleavage was 0.

As for UAACAGGGGGCCACAGCAGAGGCGUUCACGUCGCAGCCCCUGUCAGAUUCUGGUGAAUCUGCGAAUUGUGCUGUAUGUCUC [A21G C68G A77G], the self-cleavage was found to be 0.17.

With UAACAGGGGGCCACAGCAGAGGCGUUCACGUCGCAGCCCGAGUCAGAUUCUGGUGAAUCUGCGAAUUCGGCUGUAUAUCUC [A21G C40G U41A U69G], the self-cleavage was found to be 0.13.

With UAACAGGGGGCCACAGCAGAGGCGUUCACAUCGCAGCCCCUGUCAGAUUCUGGUGAACCUGCGAAUUCUGCUGUAUAUCUC [A21G G30A U58C], the self-cleavage was 0.06.

Take UAACAGGGGGCCACAGCAGAGGCGUUCACGUAGCAGCCCCUGUCAGAUUCUGGUGAAUCUGCGUAUUCUGCUGUAUAUCUC [A21G C32A A64U]: the self-cleavage came out at 0.36.

As for UAACAGGGGGCCACAGCAGAGGCUUUCACGUCGCAGCCCCUGUCAGGUUCUGGUGAAUCUGCGAAUUCUGCUGUACGUCUC [A21G G24U A47G U76C A77G], the self-cleavage was determined as 0.08.

UAACAGGGGGCCACAGCAGAGGUGUUCACGUCGGAGCCCUUGUCAGAUUCUGGUGAAUCAGCGAAUUCUGCCGUAUAUCUC [A21G C23U C34G C40U U60A U72C]: the self-cleavage stood at 0.04.

UAACAGGGGGCCACAGCAGAGGCGUUCACGUCGCAGCCCCUGUCAGAUUCUGGUGGAUCAGCGAAUUCUGCUGUAUAUCCC [A21G A56G U60A U80C]: the self-cleavage was found to be 0.24.

Turning to UAACAGGGGGCCACAGCAGAGGCGUUCACGUCGCAGCCCCUGUCAGGUUCCGGUGAAUCUGCGAAUUCUGCUGUAUAUCCC [A21G A47G U51C U80C], the self-cleavage is 0.51.

Turning to UAACAGGGGGCCACAGCAGAGGCGUUCACGUCGCAGUCCCUGUCACACUCUGGUGUGUCUGCGAAUUCUGCUGUACAUCUC [A21G C37U G46C U48C A56U A57G U76C], the self-cleavage was 0.04.

Consider UAACAGGGGGCCACAGCAGAGGCGUUCACGUCGCAGCCCCUGUCAGAUUCUGGUGGAACUGCGAAUUCUGCCGUAUAUCUC [A21G A56G U58A U72C], for which the self-cleavage was 0.08.

As for UAACAGGGGGCCACAGCAGAGGCGUUCACGUCGCAGCACCUGUCAGAUUCUGGUGAAUCUGCGAAUUCUGCUGCAUAUCUC [A21G C38A U74C], the self-cleavage turned out to be 0.28.

With UAACAGGGGGCCACAGCAGAGGCGUUCACGUCACGGCCCCUGCCAGCUUCUGGUGAACCUGCGAAUUCUGCUGUAUAUCUC [A21G G33A A35G U43C A47C U58C], the self-cleavage came out at 0.02.

As for UAACAGGGGGCCACAGCAGAGGCGUUCACGUCACAGCCCCUGUCAGACUCUGGUGAAUCUGCGAAUUCUGCUGUAUAUCUC [A21G G33A U48C], the self-cleavage came to 0.16.

As for UAACAGGGGGCCACAGCAGAGGCGUUCACGUCGCAGCCCCUGUCAGAUUCUGGUGGAUCCGCGCAUUCUGCUGUAUAUCUC [A21G A56G U60C A64C], the self-cleavage was found to be 0.16.

With UAACAGGGGGCCACAGCAGAGGCGUUCACGUCGCAGCCCCUGUCAGAUUCUGGUGAAUCUGCGAAUUCUGCUGUCUUUCUC [A21G A75C A77U], the self-cleavage turned out to be 0.97.

Regarding UAACAGGGGGCCACAGCAGAGGCGUUCACGUCGCAGCCCCUGUCAGAUUCUGGUGAGUCGGCGAGUUCUGCUGUAUAUCUC [A21G A57G U60G A65G], the self-cleavage turned out to be 0.24.

With UAACAGGGGGCCACAGCAGAGGCGUUCACGUCGCAGCCCCUGUCAGAUUCUGGUGAAUCUGCGAGUUCUGCUGUUGAUCUC [A21G A65G A75U U76G], the self-cleavage turned out to be 0.26.

For UAACAGGGGGCCACAGCAGAGGCGUUCACAUCGCAGCCCCUGUCAGAUUCUGGUGAAUCUGCGAGUUCUGCUGUAUAUCUC [A21G G30A A65G], the self-cleavage worked out at 0.25.

For UAACAGGGGGCCACAGCAGAGGCGUUCACCUCGCAGCCCCUGUCAGAUUCUGGUGGAUCUGCGAAUUCAGCUGUAUAUCUC [A21G G30C A56G U69A], the self-cleavage stood at 0.13.

Regarding UAACAGGGGGCCACAGCAGAGGCGUUCACGUCGCAGCCCCUGUCAGGUUCUGGUGAAUCUGCGAAUUCCGCUGUAUAUCUC [A21G A47G U69C], the self-cleavage is 0.07.

In the case of UAACAGGGGGCCACAGCAGAGGCGUUCAUGUCGCAGCCCCAGUCAGGUUCAGGUGUAUCUGCGAAUUCUGCAGUAUAUCUC [A21G C29U U41A A47G U51A A56U U72A], the self-cleavage came out at 0.05.

Regarding UAACAGGGGGCCACAGCAGAGGCGUUCACGUCGCAGCCCAUGUCGGAUUCUGGUGAAUCUGCGAAUUCUGCUGUAUAUCGU [A21G C40A A45G U80G C81U], the self-cleavage is 0.19.

Consider UAACAGGGGGCCACAGCAGAGGCGUUCACGUCACGGCCCCUGUCAGAUUCUGGUGUAUCUGCGAAUUCUGCUGUUUAUCUC [A21G G33A A35G A56U A75U], for which the self-cleavage was found to be 0.23.

UAACAGGGGGCCACAGCAGAGGCGUUCAUGACGCAGCCCCUGUCAGAUUCUGGUGAAUCUGCGAAUUCUGCUGUAUAACCC [A21G C29U U31A U78A U80C]: the self-cleavage is 0.08.

UAACAGGGGGCCACAGCAGAGGCGUUCACGUCGCAGCCCCUGUCAGAUUCUGGUGAGUCUGCGAAUUCUGCUGUACAUCUC [A21G A57G U76C]: the self-cleavage was found to be 0.51.

As for UAACAGGGGGCCACAGCAGAGGCGUUCACGUCGCAGCACCUGUCAGAUUCUGGUGAAUCUGAGAAUUCUGCUGUAUAUCUC [A21G C38A C62A], the self-cleavage stood at 0.26.

For the variant UAACAGGGGGCCACAGCAGAGGCGUUCACGUCGCAGCCUCUGUCAGAUUCUGGUGGGUCUGCGAAUUCUGCUGUAUAUCUC [A21G C39U A56G A57G], the self-cleavage turned out to be 0.

As to UAACAGGGGGCCACAGCAGAGGCGUUCACGUUGCAGCCCCUGUCAGAUUCUGGUGAAUCUGCGAAUUCUGCUGUACAUCUC [A21G C32U U76C], the self-cleavage is 0.13.

Take UAACAGGGGGCCACAGCAGAGGCGUUCACGUCGCAGCCCAUGUCUGAUUCUGGUGGAUCUGCGAAUUCUGCUGUAUACCUC [A21G C40A A45U A56G U78C]: the self-cleavage stood at 0.08.

On to UAACAGGGGGCCACAGCAGAGGCGUUCACGUCGUAGCCCCUGUCAGAUUCUGGUGAAUCUGCGGAUUCUGCUGUAUAUCUC [A21G C34U A64G], for which the self-cleavage is 0.31.

Regarding UAACAGGGGGCCACAGCAGAGGCGUUCACGUCGCAGCCCCUGUCAGAUUCUGGUGUAUCUGCGAAUUCCGCUGUAUAUCUC [A21G A56U U69C], the self-cleavage turned out to be 0.07.

On to UAACAGGGGGCCACAGCAGAGGCGUUCACGUCGCAGCUCCUGUCAGACUCUGGUGGAUCUGCGAGUUCUGCUGAAAAUCUC [A21G C38U U48C A56G A65G U74A U76A], for which the self-cleavage is 0.
